# The supplement of paper PMC8728848
# The list shows a part of the results.
# B1: Clrb (Mus musculus) (protein)
# chain: ITGATKTEQIPVNKTYAACPQNWIGVENKCFYFSEYPSNWTFAQAFCMAQEAQLARFDNQDELNFLMRYKANFDSWIGLHRESSEHPWKWTDNTEYNNTIPIRGEERFAYLNNNGISSTRIYSLRMWICSKLNSYSLHCQTPFFPSGTKHHHHHHHHG
# Key:
# Test in all cases: glycan array binding signal (z-score within array); higher = stronger binding
# Conditions in all cases: glycan notation: IUPAC condensed, linker removed
# [1] = biological target: GlcA(b1-3)Gal
# In short: (§1)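 Glycan array data were curated from 3228 arrays in the Consortium for Functional Glycomics database and kept only where the protein sequence was available. Glycan names were converted to IUPAC-condensed notation, and columns mapping to the same glycan were averaged. The binding signal is a within-array Z-score, averaged across arrays of the same protein sequence at different concentrations or buffers and across linkers. Negative Z-scores can be read as non-binding.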
# [2] = biological target: GlcA(b1-3)GlcNAc
# In short: as §1
# [3] = biological target: GlcA(b1-6)Gal
# In short: as §1
# [4] = biological target: GlcA3S(b1-3)Gal(b1-4)GlcNAc(b1-2)Man
# In short: as §1
# [5] = biological target: GlcA3S(b1-3)Gal(b1-4)GlcNAc(b1-3)Gal(b1-4)Glc
# In short: as §1
# [6] = biological target: GlcNAc(a1-3)Gal(b1-4)GlcNAc
# In short: as §1
# [7] = biological target: GlcNAc(a1-4)Gal(b1-3)GlcNAc
# In short: as §1
# [8] = biological target: GlcNAc(a1-4)Gal(b1-4)GalNAc
# In short: as §1
# [9] = biological target: GlcNAc(a1-4)Gal(b1-4)GlcNAc
# In short: as §1
# [10] = biological target: GlcNAc(a1-4)Gal(b1-4)GlcNAc(b1-3)Gal(b1-4)Glc
# In short: as §1
# [11] = biological target: GlcNAc(a1-4)Gal(b1-4)GlcNAc(b1-3)Gal(b1-4)GlcNAc
# In short: as §1
# [12] = biological target: GlcNAc(a1-4)Gal(b1-4)GlcNAc(b1-3)Gal(b1-4)GlcNAc(b1-3)Gal(b1-4)GlcNAc
# In short: as §1
# [13] = biological target: GlcNAc(a1-4)Gal(b1-4)GlcNAc(b1-3)Gal(b1-4)[Fuc(a1-3)]GlcNAc(b1-3)Gal(b1-4)[Fuc(a1-3)]GlcNAc
# In short: as §1
# [14] = biological target: GlcNAc(a1-6)Gal(b1-4)GlcNAc
# In short: as §1
# [15] = biological target: GlcNAc(b1-2)Gal(b1-3)GalNAc
# In short: as §1
# [16] = biological target: GlcNAc(b1-2)Man(a1-3)[GlcNAc(b1-2)Man(a1-6)]Man(b1-4)GlcNAc(b1-4)GlcNAc
# In short: as §1
# [17] = biological target: GlcNAc(b1-2)Man(a1-3)[GlcNAc(b1-2)Man(a1-6)]Man(b1-4)GlcNAc(b1-4)[Fuc(a1-6)]GlcNAc
# In short: as §1
# [18] = biological target: GlcNAc(b1-2)Man(a1-3)[GlcNAc(b1-4)][GlcNAc(b1-2)Man(a1-6)]Man(b1-4)GlcNAc(b1-4)GlcNAc
# In short: as §1
# [19] = biological target: GlcNAc(b1-2)Man(a1-3)[GlcNAc(b1-4)][GlcNAc(b1-2)Man(a1-6)]Man(b1-4)GlcNAc(b1-4)[Fuc(a1-6)]GlcNAc
# In short: as §1
# [20] = biological target: GlcNAc(b1-2)[GlcNAc(b1-4)]Man(a1-3)[GlcNAc(b1-2)Man(a1-6)]Man(b1-4)GlcNAc(b1-4)GlcNAc
# In short: as §1
# [21] = biological target: GlcNAc(b1-2)[GlcNAc(b1-4)]Man(a1-3)[GlcNAc(b1-4)][GlcNAc(b1-2)Man(a1-6)]Man(b1-4)GlcNAc(b1-4)GlcNAc
# In short: as §1
# [22] = biological target: GlcNAc(b1-2)[GlcNAc(b1-4)]Man(a1-3)[GlcNAc(b1-4)][GlcNAc(b1-2)[GlcNAc(b1-6)]Man(a1-6)]Man(b1-4)GlcNAc(b1-4)GlcNAc
# In short: as §1
# [23] = biological target: GlcNAc(b1-2)[GlcNAc(b1-4)]Man(a1-3)[GlcNAc(b1-4)][GlcNAc(b1-2)[GlcNAc(b1-6)]Man(a1-6)]Man(b1-4)GlcNAc(b1-4)[Fuc(a1-6)]GlcNAc
# In short: as §1
# [24] = biological target: GlcNAc(b1-2)[GlcNAc(b1-6)]Man(a1-6)[GlcNAc(b1-2)Man(a1-3)]Man(b1-4)GlcNAc(b1-4)GlcNAc
# In short: as §1
# [25] = biological target: GlcNAc(b1-2)[GlcNAc(b1-6)]Man(a1-6)[GlcNAc(b1-2)Man(a1-3)]Man(b1-4)GlcNAc(b1-4)[Fuc(a1-6)]GlcNAc
# In short: as §1
# [26] = biological target: GlcNAc(b1-2)[GlcNAc(b1-6)]Man(a1-6)[GlcNAc(b1-4)][GlcNAc(b1-2)Man(a1-3)]Man(b1-4)GlcNAc(b1-4)GlcNAc
# In short: as §1
# [27] = biological target: GlcNAc(b1-3)Fuc
# In short: as §1
# [28] = biological target: GlcNAc(b1-3)Gal
# In short: as §1
# [29] = biological target: GlcNAc(b1-3)Gal(b1-3)GalNAc
# In short: as §1
# [30] = biological target: GlcNAc(b1-3)Gal(b1-4)Glc
# In short: as §1
# [31] = biological target: GlcNAc(b1-3)Gal(b1-4)GlcNAc
# In short: as §1
# [32] = biological target: GlcNAc(b1-3)Gal(b1-4)GlcNAc(b1-2)Man(a1-3)[GlcNAc(b1-3)Gal(b1-4)GlcNAc(b1-2)Man(a1-6)]Man(b1-4)GlcNAc(b1-4)GlcNAc
# In short: as §1
# [33] = biological target: GlcNAc(b1-3)Gal(b1-4)GlcNAc(b1-2)Man(a1-3)[GlcNAc(b1-3)Gal(b1-4)GlcNAc(b1-2)Man(a1-6)]Man(b1-4)GlcNAc(b1-4)[Fuc(a1-6)]GlcNAc
# In short: as §1
# [34] = biological target: GlcNAc(b1-3)Gal(b1-4)GlcNAc(b1-2)[GlcNAc(b1-3)Gal(b1-4)GlcNAc(b1-6)]Man(a1-6)[GlcNAc(b1-3)Gal(b1-4)GlcNAc(b1-2)Man(a1-3)]Man(b1-4)GlcNAc(b1-4)GlcNAc
# In short: as §1
# [35] = biological target: GlcNAc(b1-3)Gal(b1-4)GlcNAc(b1-3)Gal(b1-4)GlcNAc
# In short: as §1
# [36] = biological target: GlcNAc(b1-3)Gal(b1-4)GlcNAc(b1-3)Gal(b1-4)GlcNAc(b1-2)Man(a1-3)[GlcNAc(b1-3)Gal(b1-4)GlcNAc(b1-3)Gal(b1-4)GlcNAc(b1-2)Man(a1-6)]Man(b1-4)GlcNAc(b1-4)GlcNAc
# In short: as §1
# [37] = biological target: GlcNAc(b1-3)Gal(b1-4)GlcNAc(b1-3)Gal(b1-4)GlcNAc(b1-2)Man(a1-3)[GlcNAc(b1-3)Gal(b1-4)GlcNAc(b1-3)Gal(b1-4)GlcNAc(b1-2)Man(a1-6)]Man(b1-4)GlcNAc(b1-4)[Fuc(a1-6)]GlcNAc
# In short: as §1
# [38] = biological target: GlcNAc(b1-3)Gal(b1-4)GlcNAc(b1-3)Gal(b1-4)GlcNAc(b1-2)[GlcNAc(b1-3)Gal(b1-4)GlcNAc(b1-3)Gal(b1-4)GlcNAc(b1-6)]Man(a1-6)[GlcNAc(b1-3)Gal(b1-4)GlcNAc(b1-3)Gal(b1-4)GlcNAc(b1-2)Man(a1-3)]Man(b1-4)GlcNAc(b1-4)[Fuc(a1-6)]GlcNAc
# In short: as §1
# [39] = biological target: GlcNAc(b1-3)Gal(b1-4)GlcNAc(b1-3)Gal(b1-4)GlcNAc(b1-3)Gal(b1-4)GlcNAc(b1-2)Man(a1-3)[GlcNAc(b1-3)Gal(b1-4)GlcNAc(b1-3)Gal(b1-4)GlcNAc(b1-3)Gal(b1-4)GlcNAc(b1-2)Man(a1-6)]Man(b1-4)GlcNAc(b1-4)GlcNAc
# In short: as §1
# [40] = biological target: GlcNAc(b1-3)Gal(b1-4)GlcNAc(b1-3)Gal(b1-4)GlcNAc(b1-3)Gal(b1-4)GlcNAc(b1-2)Man(a1-3)[GlcNAc(b1-3)Gal(b1-4)GlcNAc(b1-3)Gal(b1-4)GlcNAc(b1-3)Gal(b1-4)GlcNAc(b1-2)Man(a1-6)]Man(b1-4)GlcNAc(b1-4)[Fuc(a1-6)]GlcNAc
# In short: as §1
# [41] = biological target: GlcNAc(b1-3)Gal(b1-4)GlcNAc(b1-3)Gal(b1-4)GlcNAc(b1-3)Gal(b1-4)GlcNAc(b1-2)[GlcNAc(b1-3)Gal(b1-4)GlcNAc(b1-3)Gal(b1-4)GlcNAc(b1-3)Gal(b1-4)GlcNAc(b1-6)]Man(a1-6)[GlcNAc(b1-3)Gal(b1-4)GlcNAc(b1-3)Gal(b1-4)GlcNAc(b1-3)Gal(b1-4)GlcNAc(b1-2)Man(a1-3)]Man(b1-4)GlcNAc(b1-4)[Fuc(a1-6)]GlcNAc
# In short: as §1
# [42] = biological target: GlcNAc(b1-3)Gal(b1-4)GlcNAc(b1-3)Gal(b1-4)GlcNAc(b1-3)Gal(b1-4)GlcNAc(b1-3)Gal(b1-4)GlcNAc(b1-2)Man(a1-3)[GlcNAc(b1-3)Gal(b1-4)GlcNAc(b1-3)Gal(b1-4)GlcNAc(b1-3)Gal(b1-4)GlcNAc(b1-3)Gal(b1-4)GlcNAc(b1-2)Man(a1-6)]Man(b1-4)GlcNAc(b1-4)GlcNAc
# In short: as §1
# [43] = biological target: GlcNAc(b1-3)Gal(b1-4)GlcNAc(b1-3)Gal(b1-4)GlcNAc(b1-3)Gal(b1-4)GlcNAc(b1-3)Gal(b1-4)GlcNAc(b1-2)Man(a1-3)[GlcNAc(b1-3)Gal(b1-4)GlcNAc(b1-3)Gal(b1-4)GlcNAc(b1-3)Gal(b1-4)GlcNAc(b1-3)Gal(b1-4)GlcNAc(b1-2)Man(a1-6)]Man(b1-4)GlcNAc(b1-4)[Fuc(a1-6)]GlcNAc
# In short: as §1
# [44] = biological target: GlcNAc(b1-3)Gal(b1-4)GlcNAc(b1-3)Gal(b1-4)GlcNAc(b1-3)Gal(b1-4)GlcNAc(b1-3)Gal(b1-4)GlcNAc(b1-2)[GlcNAc(b1-3)Gal(b1-4)GlcNAc(b1-3)Gal(b1-4)GlcNAc(b1-3)Gal(b1-4)GlcNAc(b1-3)Gal(b1-4)GlcNAc(b1-6)]Man(a1-6)[GlcNAc(b1-3)Gal(b1-4)GlcNAc(b1-3)Gal(b1-4)GlcNAc(b1-3)Gal(b1-4)GlcNAc(b1-3)Gal(b1-4)GlcNAc(b1-2)Man(a1-3)]Man(b1-4)GlcNAc(b1-4)[Fuc(a1-6)]GlcNAc
# In short: as §1
# [45] = biological target: GlcNAc(b1-3)Gal(b1-4)GlcNAc(b1-3)Gal(b1-4)GlcNAc(b1-3)GalNAc
# In short: as §1
binder,measurement,setting,value
B1,glycan array binding signal (z-score),[1],-0.227
same,glycan array binding signal (z-score),[2],-0.39
same,glycan array binding signal (z-score),[3],-0.328
same,glycan array binding signal (z-score),[4],-0.463
same,glycan array binding signal (z-score),[5],-0.375
same,glycan array binding signal (z-score),[6],5.77
same,glycan array binding signal (z-score),[7],3.81
same,glycan array binding signal (z-score),[8],0.252
same,glycan array binding signal (z-score),[9],4.2
same,glycan array binding signal (z-score),[10],2.34
same,glycan array binding signal (z-score),[11],1.08
same,glycan array binding signal (z-score),[12],5.29
same,glycan array binding signal (z-score),[13],2.1
same,glycan array binding signal (z-score),[14],-0.406
same,glycan array binding signal (z-score),[15],0.667
same,glycan array binding signal (z-score),[16],-0.293
same,glycan array binding signal (z-score),[17],-0.258
same,glycan array binding signal (z-score),[18],1.62
same,glycan array binding signal (z-score),[19],4.51
same,glycan array binding signal (z-score),[20],-0.35
same,glycan array binding signal (z-score),[21],4.02
same,glycan array binding signal (z-score),[22],1.54
same,glycan array binding signal (z-score),[23],-0.007
same,glycan array binding signal (z-score),[24],-0.254
same,glycan array binding signal (z-score),[25],-0.494
same,glycan array binding signal (z-score),[26],3.49
same,glycan array binding signal (z-score),[27],1.92
same,glycan array binding signal (z-score),[28],-0.241
same,glycan array binding signal (z-score),[29],-0.22
same,glycan array binding signal (z-score),[30],-0.237
same,glycan array binding signal (z-score),[31],2.31
same,glycan array binding signal (z-score),[32],0.301
same,glycan array binding signal (z-score),[33],0.94
same,glycan array binding signal (z-score),[34],0.54
same,glycan array binding signal (z-score),[35],1.74
same,glycan array binding signal (z-score),[36],1.33
same,glycan array binding signal (z-score),[37],1.51
same,glycan array binding signal (z-score),[38],0.215
same,glycan array binding signal (z-score),[39],-0.112
same,glycan array binding signal (z-score),[40],1.01
same,glycan array binding signal (z-score),[41],0.444
same,glycan array binding signal (z-score),[42],0.135
same,glycan array binding signal (z-score),[43],0.21
same,glycan array binding signal (z-score),[44],-0.147
same,glycan array binding signal (z-score),[45],-0.444
